# From the supplement of paper PMC8728848
# The other results are listed elsewhere or left out.
# What was measured:
# Assay in all cases: glycan array binding signal (z-score within array); higher = stronger binding
# Conditions in all cases: glycan notation: IUPAC condensed, linker removed
# [1] = molecular target: Fuc(a1-2)Gal(b1-4)GlcNAc(b1-3)Gal(b1-4)GlcNAc(b1-3)Gal(b1-4)GlcNAc
# Outline: (§1)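 From the Consortium for Functional Glycomics database, 3228 arrays were curated, keeping only those whose protein sequence was available. Binding is given as a within-array Z-score averaged across arrays sharing a protein sequence and across linkers. Negative Z-scores can be read as non-binding.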
# [2] = molecular target: Fuc(a1-2)Gal(b1-4)GlcNAc(b1-3)GalNAc
# Outline: as §1
# [3] = molecular target: Fuc(a1-2)Gal(b1-4)GlcNAc(b1-3)[Fuc(a1-2)Gal(b1-4)GlcNAc(b1-6)]GalNAc
# Outline: as §1
# [4] = molecular target: Fuc(a1-2)Gal(b1-4)GlcNAc(b1-3)[Fuc(a1-3)[Gal(b1-4)]GlcNAc(b1-6)]Gal(b1-4)Glc
# Outline: as §1
# [5] = molecular target: Fuc(a1-2)Gal(b1-4)GlcNAc(b1-6)GalNAc
# Outline: as §1
# [6] = molecular target: Fuc(a1-2)Gal(b1-4)GlcNAc6S
# Outline: as §1
# [7] = molecular target: Fuc(a1-2)Gal(b1-4)[Fuc(a1-3)]GlcNAc
# Outline: as §1
# [8] = molecular target: Fuc(a1-2)Gal(b1-4)[Fuc(a1-3)]GlcNAc(b1-2)Man(a1-3)[Fuc(a1-2)Gal(b1-4)[Fuc(a1-3)]GlcNAc(b1-2)Man(a1-6)]Man(b1-4)GlcNAc(b1-4)[Fuc(a1-6)]GlcNAc
# Outline: as §1
# [9] = molecular target: Fuc(a1-2)Gal(b1-4)[Fuc(a1-3)]GlcNAc(b1-2)[Fuc(a1-2)Gal(b1-4)[Fuc(a1-3)]GlcNAc(b1-4)]Man(a1-3)[Fuc(a1-2)Gal(b1-4)[Fuc(a1-3)]GlcNAc(b1-2)Man(a1-6)]Man(b1-4)GlcNAc(b1-4)GlcNAc
# Outline: as §1
# [10] = molecular target: Fuc(a1-2)Gal(b1-4)[Fuc(a1-3)]GlcNAc(b1-3)Gal(b1-4)[Fuc(a1-3)]GlcNAc
# Outline: as §1
# [11] = molecular target: Fuc(a1-2)Gal(b1-4)[Fuc(a1-3)]GlcNAc(b1-3)Gal(b1-4)[Fuc(a1-3)]GlcNAc(b1-3)Gal(b1-4)[Fuc(a1-3)]GlcNAc
# Outline: as §1
# [12] = molecular target: Fuc(a1-2)Gal(b1-4)[Fuc(a1-3)]GlcNAc(b1-3)GalNAc
# Outline: as §1
# [13] = molecular target: Fuc(a1-2)Gal(b1-4)[Fuc(a1-3)]GlcNAc(b1-3)[Neu5Ac(a2-6)Gal(b1-4)GlcNAc(b1-6)]Gal(b1-4)Glc
# Outline: as §1
# [14] = molecular target: Fuc(a1-2)Gal3S(b1-4)GlcNAc
# Outline: as §1
# [15] = molecular target: Fuc(a1-2)Gal6S(b1-3)GlcNAc
# Outline: as §1
# [16] = molecular target: Fuc(a1-2)Gal6S(b1-3)GlcNAc6S
# Outline: as §1
# Fuc(a1-2)Gal6S(b1-4)Glc = molecular target: Fuc(a1-2)Gal6S(b1-4)Glc
# Outline: as §1
# [17] = molecular target: Fuc(a1-2)Gal6S(b1-4)Glc6S
# Outline: as §1
# Fuc(a1-2)[Gal(a1-3)]Gal = molecular target: Fuc(a1-2)[Gal(a1-3)]Gal
# Outline: as §1
# [18] = molecular target: Fuc(a1-2)[Gal(a1-3)]Gal(b1-3)GalNAc
# Outline: as §1
# [19] = molecular target: Fuc(a1-2)[Gal(a1-3)]Gal(b1-3)GalNAc(b1-3)Gal(a1-4)Gal(b1-4)Glc
# Outline: as §1
# [20] = molecular target: Fuc(a1-2)[Gal(a1-3)]Gal(b1-3)GlcNAc
# Outline: as §1
# [21] = molecular target: Fuc(a1-2)[Gal(a1-3)]Gal(b1-3)GlcNAc(b1-2)Man(a1-3)[Fuc(a1-2)[Gal(a1-3)]Gal(b1-3)GlcNAc(b1-2)Man(a1-6)]Man(b1-4)GlcNAc(b1-4)GlcNAc
# Outline: as §1
# [22] = molecular target: Fuc(a1-2)[Gal(a1-3)]Gal(b1-3)GlcNAc(b1-2)Man(a1-3)[Fuc(a1-2)[Gal(a1-3)]Gal(b1-3)GlcNAc(b1-2)Man(a1-6)]Man(b1-4)GlcNAc(b1-4)[Fuc(a1-6)]GlcNAc
# Outline: as §1
# [23] = molecular target: Fuc(a1-2)[Gal(a1-3)]Gal(b1-3)GlcNAc(b1-3)GalNAc
# Outline: as §1
# [24] = molecular target: Fuc(a1-2)[Gal(a1-3)]Gal(b1-3)GlcNAc(b1-6)GalNAc
# Outline: as §1
# [25] = molecular target: Fuc(a1-2)[Gal(a1-3)]Gal(b1-4)Glc
# Outline: as §1
# [26] = molecular target: Fuc(a1-2)[Gal(a1-3)]Gal(b1-4)GlcNAc
# Outline: as §1
# [27] = molecular target: Fuc(a1-2)[Gal(a1-3)]Gal(b1-4)GlcNAc(b1-2)Man
# Outline: as §1
# [28] = molecular target: Fuc(a1-2)[Gal(a1-3)]Gal(b1-4)GlcNAc(b1-2)Man(a1-3)[Fuc(a1-2)[Gal(a1-3)]Gal(b1-4)GlcNAc(b1-2)Man(a1-6)]Man(b1-4)GlcNAc(b1-4)GlcNAc
# Outline: as §1
binder,measurement,setting,value
Pbx2 (Cryptococcus neoformans) (protein) AVSPLPSSTELVFYSQKRRRRRICSTATGSLSTPDPTRMTSDPYKRVGMRFSSVPRLLITFLSLLLLVSAAPPCVRFADYDSINQMFIDGGPGTKVLLCPNRLYRLSGPIIFTAADQEIATYGYPTGSERAVLRVEGRNTATAIQGDCRRCARVSVKNLVVDGNRKKLGRMRDFQLATGLVVLGGNEGQSIQNSWIKNPRGFTAIHIREGDKLQCSGARVEKNEIGPVGEEYDPEKDGDDPEMSPLGRPLADGVSIACRDSFIRDNTFRDNTDAAIVVYCSPGTLIHANHIFAQSLSAMAGILMVDSTPFNGDYTGTVVRSNIIDAVSRTIRVGIGIGPTVWSDDTETILTGGSVIGNGLKGRYMGYGIAAAGLKQWTIKDNWDEAKHEGRKSARCFDEPVNPDPIGLLYNRPTMEDCTVQSGFADHDFQYLVCIDGLYDKTNPPKHDPAPLAHDPSPTNAQEDNTVQQDGGDSKSKSIEQPREASDIEAEPSVEKMFSTGSEMMDDVLEHSHQRMHEVIDHLSRRIDILGAASAGKGSGDSKISEVLDPAMSSHLEKLQRKIEHLEFSLRSQIETAIQLRSAIQGWDQEMALVTDWEYDILLDVRHKLELSSYPHDQPLDPRLMRGQSYLNNEAVLVDDHSHPSLEGENLRAMSDRARLNANEEA,glycan array binding signal (z-score),[1],-0.165
same,glycan array binding signal (z-score),[2],-0.275
same,glycan array binding signal (z-score),[3],0.145
same,glycan array binding signal (z-score),[4],-0.293
same,glycan array binding signal (z-score),[5],-0.334
same,glycan array binding signal (z-score),[6],-0.374
same,glycan array binding signal (z-score),[7],-0.305
same,glycan array binding signal (z-score),[8],0.365
same,glycan array binding signal (z-score),[9],-0.14
same,glycan array binding signal (z-score),[10],-0.123
same,glycan array binding signal (z-score),[11],-0.498
same,glycan array binding signal (z-score),[12],5.82
same,glycan array binding signal (z-score),[13],0.069
same,glycan array binding signal (z-score),[14],-0.561
same,glycan array binding signal (z-score),[15],0.07
same,glycan array binding signal (z-score),[16],3.8
same,glycan array binding signal (z-score),Fuc(a1-2)Gal6S(b1-4)Glc,-0.497
same,glycan array binding signal (z-score),[17],1.44
same,glycan array binding signal (z-score),Fuc(a1-2)[Gal(a1-3)]Gal,-0.41
same,glycan array binding signal (z-score),[18],-0.257
same,glycan array binding signal (z-score),[19],-0.27
same,glycan array binding signal (z-score),[20],-0.047
same,glycan array binding signal (z-score),[21],-0.446
same,glycan array binding signal (z-score),[22],0.037
same,glycan array binding signal (z-score),[23],-0.12
same,glycan array binding signal (z-score),[24],0.177
same,glycan array binding signal (z-score),[25],0.373
same,glycan array binding signal (z-score),[26],-0.122
same,glycan array binding signal (z-score),[27],0.542
same,glycan array binding signal (z-score),[28],-0.409
